Results as given in PubChem BioAssay AID1461 (National Center for Advancing Translational Sciences (NCATS), 2008).
Out of some 220,000 compounds screened, about 2,300 (1%) were called active. The inconclusive results got no clear call from the source; some entries with a clear call stand among them for comparison. Calls come from the whole dose curve; as a rule, active = well fitted inhibition curve with a large enough effect; inconclusive = small, poorly fitted or top-dose-only effect, or effect the other way; inactive = no such curve, though single readings can be large or run the other way. Potencies of inconclusive entries are left out as doubtful fits.

What follows are molecules tested against Neuropeptide S receptor (Homo sapiens) (UniProt Q6W5P4) (assay: qHTS Assay for Antagonists of the Neuropeptide S Receptor: cAMP Signal Transduction). Conditions: CHO-NPSR cells, cAMP TR-FRET, antagonist mode; series mostly up to 38.3 µM.
UniProt Q6W5P4, sequence (Q6W5P4 whole entry, looked up): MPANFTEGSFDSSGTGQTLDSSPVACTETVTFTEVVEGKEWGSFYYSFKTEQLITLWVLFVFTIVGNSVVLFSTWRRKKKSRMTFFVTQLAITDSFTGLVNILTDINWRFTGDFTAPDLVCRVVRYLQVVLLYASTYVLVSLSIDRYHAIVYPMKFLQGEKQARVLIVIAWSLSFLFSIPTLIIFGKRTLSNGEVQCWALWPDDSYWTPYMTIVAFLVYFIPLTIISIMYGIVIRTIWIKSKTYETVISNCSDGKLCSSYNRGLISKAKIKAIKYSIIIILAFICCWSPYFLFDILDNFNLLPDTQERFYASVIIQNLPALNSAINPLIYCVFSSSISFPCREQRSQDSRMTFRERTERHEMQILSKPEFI
Note: nearly all actives have a fitted effect of over 50% in size.
Potency is the fitted concentration of half-maximal effect; tags give direction and shape of the fitted curve.

Row | Compound | Potency
1 | Cc1ccc(Nc2nnc(SC/C(O)=C(\C#N)c3nc4ccccc4[nH]3)s2)c(C)c1 | inactive
2 | CCN(CC)c1nc(Nc2ccccc2)nc(Oc2ccc(C(=O)OC)cc2)n1 | inconclusive [inhibitor, single point]
3 | O=C(CCSc1ccc(Cl)cc1)Nc1cccnc1 | inactive
4 | CCN(CC)S(=O)(=O)c1ccc(NS(=O)(=O)c2ccc(O)c([N+](=O)[O-])c2)cc1 | inactive
5 | CC1(c2ccccc2)CC(C)(C)N2C(=O)C3(C(C#N)=C(N)Oc4cc(O)ccc43)c3cccc1c32 (centres undefined) | inconclusive [inhibitor, single point]
6 | CC(C)c1ccc(/C=N/Nc2ccc(C(=O)O)cc2)cc1 | inactive
7 | COC(=O)C(C(=O)Nc1ncccn1)C1CCCCCC1 (centres undefined) | inconclusive [inhibitor, single point]
8 | CCNc1nc2ccccc2[nH]1 | inactive
9 | CCCN1C(=O)C(O)(CC(=O)c2cccc(OC)c2)c2ccccc21 (centres undefined) | inactive
10 | Cc1cc(NC(=O)C2CCCCC2)n(-c2nc3ccccc3[nH]2)n1 | inconclusive [inhibitor, single point]
11 | Cc1ccc(Nc2nc(N/N=C/c3c[nH]c4ccccc34)nc(N3CCOCC3)n2)cc1 | inconclusive [inhibitor, single point]
12 | CC(C)Cc1nc(N2CCN(C(=O)Cc3ccccc3)CC2)c(C#N)c2c1COC(C)(C)C2 | inconclusive [inhibitor, single point]
13 | Cc1ccccc1OCCNc1cc(N2CCNCC2)ccc1[N+](=O)[O-] | inconclusive [activator, partial curve]
14 | CCCC[n+]1ccn(-c2nc3ccccc3nc2[N-]S(=O)(=O)c2ccc(Br)cc2)c1 | inconclusive [activator, single point]
15 | O=C(Nc1cccc(C(F)(F)F)c1)c1cc(Br)cc2c1OCC2 | inconclusive [activator, single point]
16 | CSCCC(Nc1ncnc2ccc(Br)cc12)C(=O)O (centres undefined) | inconclusive [activator, partial curve]
17 | O=c1ccc(Oc2nc(N3CCCCC3)nc(N3CCCCC3)n2)n[nH]1 | inconclusive [inhibitor, partial curve, poor fit]
18 | Cc1cc(NC(=O)CSc2nc3ccccc3c(=O)n2Cc2ccc(F)cc2)no1 | inconclusive [activator, single point]
19 | Cc1c(N=Cc2nc3ccccc3n2C)c(=O)n(-c2ccccc2)n1C | inactive
20 | COc1cc(NC(=O)Cn2c(C)cc3ccccc3c2=O)cc(OC)c1OC | inconclusive [activator, single point]
21 | COC(=O)C1=C(C)N(C)C(C)=C(C(=O)OC)C1c1ccc(F)c(Br)c1 | inconclusive [inhibitor, partial curve]
22 | CC(C)Cc1nc(N2CCN(C(=O)c3ccccc3)CC2)c(C#N)c2c1CCC2 | active: 2 µM
23 | CC(=O)n1cc([C@H]2C=C(C(=O)Nc3ccccc3)O[C@@H](OCc3ccc(CO)cc3)C2)c2ccccc21 | inconclusive [activator, partial curve]
24 | CC1CCCN(S(=O)(=O)c2cc(Cl)ccc2Cl)C1 (centres undefined) | inconclusive [inhibitor, single point]
25 | COc1ccc2c(-c3ccccc3)cc(SCC(=O)NC(N)=O)nc2c1 | inconclusive [inhibitor, single point]

Row | Compound | Potency
26 | CCOC(=O)c1nnn2c1nc(Nc1cccc(C(F)(F)F)c1)c1ccccc12 | inconclusive [inhibitor, single point]
27 | CCCCC1(C)OC(=O)C(=Cc2ccc(N(CC)CC)cc2)C(=O)O1 (centres undefined) | inactive
28 | CS(=O)(=O)c1nc(-c2cccs2)cc(C(F)(F)F)n1 | active: 3.16 µM
29 | NC(=O)c1c(NC(=O)CSc2nnc(Cc3ccccc3)n2Cc2ccco2)sc2c1CCC2 | inconclusive [inhibitor, single point]
30 | COC(=O)c1cc2sc(Cl)cc2n1CC(=O)NCCC(C)C | inconclusive [inhibitor, single point]
31 | COc1cc2c3c(c1OC)C1(C=CC(=O)C=C1)CC3N(C(C)=O)CC2 (centres undefined) | inactive
32 | N=c1c2c(-c3ccccc3)c(-c3ccccc3)n(Cc3ccco3)c2ncn1Cc1ccco1 | active: 10 µM
33 | Cc1cc(/C=N/n2cnnc2)c(C)n1-c1ccc(OCc2ccc(Cl)cc2Cl)cc1 | inconclusive [inhibitor, single point]
34 | Cc1nc(SCCC(=O)O)c2ccccc2n1 | inconclusive [activator, partial curve]
35 | OCc1ccccc1N=c1ssnc1Cl | inactive
36 | Cc1cc(NC(=O)c2ccc3nc(C)sc3c2)no1 | inactive
37 | Cn1c(CCN2CCCCC2)nc2cc(NS(=O)(=O)c3ccc(Cl)cc3)ccc21 | inconclusive [inhibitor, single point]
38 | NC(=O)OCC(COC(N)=O)c1ccccc1 | inconclusive [inhibitor, full curve, poor fit]
39 | CCN(CC)S(=O)(=O)N1CCC(C(=O)NCc2ccc(C)cc2)CC1 | inactive
40 | COc1ccc2c(C)cc(SCC(=O)Nc3cccnc3Cl)nc2c1 | inconclusive [inhibitor, single point]
41 | CSC1=C(C#N)C(c2ccccc2)C(C(C)=O)=C(C)N1 (centres undefined) | inactive
42 | Cc1cc(C)cc(NC(=O)C2CCN(c3nc(C)cc(C)n3)CC2)c1 | inconclusive [inhibitor, single point]
43 | CC1(C)Cc2ccccc2C(NNC(=O)c2ccccc2)=N1 | inactive
44 | O=C1C2C3C=CC(CO)(O3)C2C(=O)N1c1ccccc1-c1ccccc1 (centres undefined) | active: 6.31 µM
45 | CC1(C)CNc2cc(N)ccc2S1 | inactive
46 | CCOC(=O)c1c(-c2ccccc2)nc2ccccn12 | inactive
47 | CSc1nnc2n(C)c3c(c(=O)n12)C1(CCCC1)Cc1ccccc1-3 | inactive
48 | COc1ccc(C(=O)c2ccc(N3CCN(C(=O)c4ccc(F)cc4)CC3)c(F)c2)cc1Br | inconclusive [inhibitor, single point]
49 | Cc1ccc(-n2c(C)c3c(C)nnc(C)c3c2C)cc1N | inconclusive [inhibitor, single point]
50 | COc1cc(OC)c(C2=NOC(C(=O)Nc3ccc4c(c3)OCO4)C2)cc1Cl (centres undefined) | inconclusive [inhibitor, single point]

Row | Compound | Potency
51 | COc1ccc(C)cc1NCC(=O)Nc1ccc(C(C)(C)C)cc1 | inactive
52 | CCCCCc1n[nH]c2c1CCCC2 | inactive
53 | CC1CCN(C(c2cccs2)c2nnnn2Cc2ccccc2)CC1 (centres undefined) | inconclusive [inhibitor, single point]
54 | N#CCSc1nc2c(c(=O)n1Cc1ccco1)C1(CCCC1)Cc1ccccc1-2 | inconclusive [inhibitor, single point]
55 | COc1ccc2c(c1)C(=O)/C(=C/C=C/c1ccccc1)CC2 | inconclusive [inhibitor, partial curve]
56 | Cc1sc(NC(=O)c2ccco2)c(CN2CCN(c3ccccc3)CC2)c1C | inconclusive [inhibitor, partial curve]
57 | CCCOC(=O)c1ccc(O)c(OC)c1 | inactive
58 | Clc1ccc(-n2nnnc2-c2cnc3ccc(Cl)cc3c2-c2ccccc2)cc1 | inconclusive [inhibitor, single point]
59 | CCOC(=O)c1sc(NC(=O)Nc2ccc(Cl)cc2)cc1C | inconclusive [inhibitor, single point]
60 | CCCC(=O)Nc1ccc(S(=O)(=O)N2CCCC2)cc1 | inactive
61 | CC1=CC(=C(C#N)C#N)C=C(C)N1CCN1CCN(C(=O)Nc2ccc(Cl)c(Cl)c2)CC1 | inactive
62 | COc1ccc(CN2C(=O)CSC2c2ccncc2)cc1 (centres undefined) | inactive
63 | CC1CC(=O)c2c(cc3c(-c4c(O)cc(O)c5c(O)c6c(cc45)OC(C)CC6=O)c(O)cc(O)c3c2O)O1 (centres undefined) | inconclusive [activator, single point]
64 | Cc1scc(C(=O)NNC(=S)NCC2CCCO2)c1C (centres undefined) | inactive
65 | COc1ccc(C(=O)c2ccc(N(C)C)cc2)c2ccccc12 | inconclusive [activator, single point]
66 | O=C(CCCn1c(=S)[nH]c2ccc(Br)cc2c1=O)NCC1CCCO1 (centres undefined) | inactive
67 | Fc1cccc2sc(Nc3nnc(-c4ccccc4)o3)nc12 | inconclusive [inhibitor, single point]
68 | Cc1ccc(OC(F)F)c(NC(=O)Nc2cccc(C(F)(F)F)c2)c1 | inconclusive [inhibitor, single point]
69 | CCCc1nc2ccc(NC(=O)NCCC(=O)OCC)cc2c(=O)n1Cc1ccc(Cl)cc1 | inconclusive [inhibitor, partial curve]
70 | O=C(Nc1ccc(Cl)cc1)Nc1cccc2nsnc12 | inconclusive [inhibitor, single point]
71 | Oc1ccc(C2=Nn3c(nnc3-c3ccco3)SC2)cc1O | inconclusive [inhibitor, partial curve, poor fit]
72 | CCN(CC)S(=O)(=O)c1ccc(NC2c3ccccc3C(=O)N2CCN2CCOCC2)cc1 (centres undefined) | inactive
73 | Cc1ccc(C)n1-c1sc2c(c1C#N)CCCC2 | inconclusive [inhibitor, single point]
74 | O=C(COC(=O)c1ccc(NS(=O)(=O)c2cccs2)cc1O)Nc1nc2ccccc2s1 | inconclusive [activator, partial curve]
